From the supplement of paper PMC11876631
± gives the standard deviation of the averaged measurements. Laboratory Escherichia coli strains with one amino-acid change in an essential protein, pooled on minimal glucose agar with carbenicillin or gentamicin at twice the control MIC (plus kanamycin and chloramphenicol for the plasmids), 48 h. Fold change of barcode share against drug-free plates; higher = less susceptible. Active = above 20 in both replicates (the paper's putatively resistant). '<' = one read or none on drug, '>' = one read or none on a drug-free plate. Shares are relative, so most strains fall below 1 when a few take over. Listed are strains with at least 15 reads on both drug-free plates, and hits; most hits rest on fewer reference reads. Replicate rank correlation about 0.5. Edits are read from barcodes.

Each protein was assayed against Escherichia coli (laboratory strain) (assay: barcode share on antibiotic plates over drug-free plates; higher = less susceptible). Details: antibiotic: gentamicin; 2× MIC (MIC 0.45 µg/mL).
Description: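 A pool of E. coli strains, each edited to carry one amino-acid change in an essential protein, was grown for 48 h on minimal glucose agar with or without antibiotic; strain barcodes were sequenced; mean of two replicates.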

Row | Protein | fold change of barcode share
1 | hemA I246Q (protein) MTLLALGINHKTAPVSLRERVSFSPDKLDQALDSLLAQPMVQGGVVLSTCNRTELYLSVEEQDNLQEALIRWLCDYHNLNEEDLRKSLYWHQDNDAVSHLMRVASGLDSLVLGEPQILGQVKKAFADSQKGHMKASELERMFQKSFSVAKRVRTETDIGASAVSVAFAACTLARQIFESLSTVTVLLVGAGETIELVARHLREHKVQKMIIANRTRERAQILADEVGAEVIALSDIDERLREADIQISSTASPLPIIGKGMVERALKSRRNQPMLLVDIAVPRDVEPEVGKLANAYLYSVDDLQSIISHNLAQRKAAAVEAETIVAQETSEFMAWLRAQSASETIREYRSQAEQVRDELTAKALAALEQGGDAQAIMQDLAWKLTNRLIHAPTKSLQQAARDGDNERLNILRDSLGLE | 1300 [active]
2 | hemA I247Q (protein) MTLLALGINHKTAPVSLRERVSFSPDKLDQALDSLLAQPMVQGGVVLSTCNRTELYLSVEEQDNLQEALIRWLCDYHNLNEEDLRKSLYWHQDNDAVSHLMRVASGLDSLVLGEPQILGQVKKAFADSQKGHMKASELERMFQKSFSVAKRVRTETDIGASAVSVAFAACTLARQIFESLSTVTVLLVGAGETIELVARHLREHKVQKMIIANRTRERAQILADEVGAEVIALSDIDERLREADIIQSSTASPLPIIGKGMVERALKSRRNQPMLLVDIAVPRDVEPEVGKLANAYLYSVDDLQSIISHNLAQRKAAAVEAETIVAQETSEFMAWLRAQSASETIREYRSQAEQVRDELTAKALAALEQGGDAQAIMQDLAWKLTNRLIHAPTKSLQQAARDGDNERLNILRDSLGLE | > 80.5 [active]
3 | hemA L276Q (protein) MTLLALGINHKTAPVSLRERVSFSPDKLDQALDSLLAQPMVQGGVVLSTCNRTELYLSVEEQDNLQEALIRWLCDYHNLNEEDLRKSLYWHQDNDAVSHLMRVASGLDSLVLGEPQILGQVKKAFADSQKGHMKASELERMFQKSFSVAKRVRTETDIGASAVSVAFAACTLARQIFESLSTVTVLLVGAGETIELVARHLREHKVQKMIIANRTRERAQILADEVGAEVIALSDIDERLREADIIISSTASPLPIIGKGMVERALKSRRNQPMLQVDIAVPRDVEPEVGKLANAYLYSVDDLQSIISHNLAQRKAAAVEAETIVAQETSEFMAWLRAQSASETIREYRSQAEQVRDELTAKALAALEQGGDAQAIMQDLAWKLTNRLIHAPTKSLQQAARDGDNERLNILRDSLGLE | 2140 [active]
4 | hemA L32A (protein) MTLLALGINHKTAPVSLRERVSFSPDKLDQAADSLLAQPMVQGGVVLSTCNRTELYLSVEEQDNLQEALIRWLCDYHNLNEEDLRKSLYWHQDNDAVSHLMRVASGLDSLVLGEPQILGQVKKAFADSQKGHMKASELERMFQKSFSVAKRVRTETDIGASAVSVAFAACTLARQIFESLSTVTVLLVGAGETIELVARHLREHKVQKMIIANRTRERAQILADEVGAEVIALSDIDERLREADIIISSTASPLPIIGKGMVERALKSRRNQPMLLVDIAVPRDVEPEVGKLANAYLYSVDDLQSIISHNLAQRKAAAVEAETIVAQETSEFMAWLRAQSASETIREYRSQAEQVRDELTAKALAALEQGGDAQAIMQDLAWKLTNRLIHAPTKSLQQAARDGDNERLNILRDSLGLE | > 1260 [active]
5 | guaB M195Q (protein) MLRIAKEALTFDDVLLVPAHSTVLPNTADLSTQLTKTIRLNIPMLSAAMDTVTEARLAIALAQEGGIGFIHKNMSIERQAEEVRRVKKHESGVVTDPQTVLPTTTLREVKELTERNGFAGYPVVTEENELVGIITGRDVRFVTDLNQPVSVYMTPKERLVTVREGEAREVVLAKMHEKRVEKALVVDDEFHLIGQITVKDFQKAERKPNACKDEQGRLRVGAAVGAGAGNEERVDALVAAGVDVLLIDSSHGHSEGVLQRIRETRAKYPDLQIIGGNVATAAGARALAEAGCSAVKVGIGPGSICTTRIVTGVGVPQITAVADAVEALEGTGIPVIADGGIRFSGDIAKAIAAGASAVMVGSMLAGTEESPGEIELYQGRSYKSYRGMGSLGAMSKGSSDRYFQSDNAADKLVPEGIEGRVAYKGRLKEIIHQQMGGLRSCMGLTGCGTIDELRTKAEFVRISGAGIQESHVHDVTITKESPNYRLGS | < 0.0171
6 | gmk L24W (protein) MAQGTLYIVSAPSGAGKSSLIQAWLKTQPLYDTQVSVSHTTRQPRPGEVHGEHYFFVNHDEFKEMISRDAFLEHAEVFGNYYGTSREAIEQVLATGVDVFLDIDWQGAQQIRQKMPHARSIFILPPSKIELDRRLRGRGQDSEEVIAKRMAQAVAEMSHYAEYDYLIVNDDFDTALTDLKTIIRAERLRMSRQKQRHDALISKLLAD | 0.0215 ± 0.01
7 | gmk L179Q (protein) MAQGTLYIVSAPSGAGKSSLIQALLKTQPLYDTQVSVSHTTRQPRPGEVHGEHYFFVNHDEFKEMISRDAFLEHAEVFGNYYGTSREAIEQVLATGVDVFLDIDWQGAQQIRQKMPHARSIFILPPSKIELDRRLRGRGQDSEEVIAKRMAQAVAEMSHYAEYDYLIVNDDFDTALTDQKTIIRAERLRMSRQKQRHDALISKLLAD | < 0.0219
8 | gltX V186D (protein) MKIKTRFAPSPTGYLHVGGARTALYSWLFARNHGGEFVLRIEDTDLERSTPEAIEAIMDGMNWLSLEWDEGPYYQTKRFDRYNAVIDQMLEEGTAYKCYCSKERLEALREEQMAKGEKPRYDGRCRHSHEHHADDEPCVVRFANPQEGSVVFDDQIRGPIEFSNQELDDLIIRRTDGSPTYNFCVDVDDWDMEITHVIRGEDHINNTPRQINILKALKAPVPVYAHVSMINGDDGKKLSKRHGAVSVMQYRDDGYLPEALLNYLVRLGWSHGDQEIFTREEMIKYFTLNAVSKSASAFNTDKLLWLNHHYINALPPEYVATHLQWHIEQENIDTRNGPQLADLVKLLGERCKTLKEMAQSCRYFYEDFAEFDADAAKKHLRPVARQPLEVVRDKLAAITDWTAENVHHAIQATADELEVGMGKVGMPLRVAVTGAGQSPALDVTVHAIGKTRSIERINKALDFIAERENQQ | < 0.00595
9 | gltX V186P (protein) MKIKTRFAPSPTGYLHVGGARTALYSWLFARNHGGEFVLRIEDTDLERSTPEAIEAIMDGMNWLSLEWDEGPYYQTKRFDRYNAVIDQMLEEGTAYKCYCSKERLEALREEQMAKGEKPRYDGRCRHSHEHHADDEPCVVRFANPQEGSVVFDDQIRGPIEFSNQELDDLIIRRTDGSPTYNFCVPVDDWDMEITHVIRGEDHINNTPRQINILKALKAPVPVYAHVSMINGDDGKKLSKRHGAVSVMQYRDDGYLPEALLNYLVRLGWSHGDQEIFTREEMIKYFTLNAVSKSASAFNTDKLLWLNHHYINALPPEYVATHLQWHIEQENIDTRNGPQLADLVKLLGERCKTLKEMAQSCRYFYEDFAEFDADAAKKHLRPVARQPLEVVRDKLAAITDWTAENVHHAIQATADELEVGMGKVGMPLRVAVTGAGQSPALDVTVHAIGKTRSIERINKALDFIAERENQQ | 0.008 ± 0.0042
10 | gltX F183W (protein) MKIKTRFAPSPTGYLHVGGARTALYSWLFARNHGGEFVLRIEDTDLERSTPEAIEAIMDGMNWLSLEWDEGPYYQTKRFDRYNAVIDQMLEEGTAYKCYCSKERLEALREEQMAKGEKPRYDGRCRHSHEHHADDEPCVVRFANPQEGSVVFDDQIRGPIEFSNQELDDLIIRRTDGSPTYNWCVVVDDWDMEITHVIRGEDHINNTPRQINILKALKAPVPVYAHVSMINGDDGKKLSKRHGAVSVMQYRDDGYLPEALLNYLVRLGWSHGDQEIFTREEMIKYFTLNAVSKSASAFNTDKLLWLNHHYINALPPEYVATHLQWHIEQENIDTRNGPQLADLVKLLGERCKTLKEMAQSCRYFYEDFAEFDADAAKKHLRPVARQPLEVVRDKLAAITDWTAENVHHAIQATADELEVGMGKVGMPLRVAVTGAGQSPALDVTVHAIGKTRSIERINKALDFIAERENQQ | 0.00432 ± 0.0012
11 | gltX V185A (protein) MKIKTRFAPSPTGYLHVGGARTALYSWLFARNHGGEFVLRIEDTDLERSTPEAIEAIMDGMNWLSLEWDEGPYYQTKRFDRYNAVIDQMLEEGTAYKCYCSKERLEALREEQMAKGEKPRYDGRCRHSHEHHADDEPCVVRFANPQEGSVVFDDQIRGPIEFSNQELDDLIIRRTDGSPTYNFCAVVDDWDMEITHVIRGEDHINNTPRQINILKALKAPVPVYAHVSMINGDDGKKLSKRHGAVSVMQYRDDGYLPEALLNYLVRLGWSHGDQEIFTREEMIKYFTLNAVSKSASAFNTDKLLWLNHHYINALPPEYVATHLQWHIEQENIDTRNGPQLADLVKLLGERCKTLKEMAQSCRYFYEDFAEFDADAAKKHLRPVARQPLEVVRDKLAAITDWTAENVHHAIQATADELEVGMGKVGMPLRVAVTGAGQSPALDVTVHAIGKTRSIERINKALDFIAERENQQ | 0.0716 ± 0.097
12 | gltX L306P (protein) MKIKTRFAPSPTGYLHVGGARTALYSWLFARNHGGEFVLRIEDTDLERSTPEAIEAIMDGMNWLSLEWDEGPYYQTKRFDRYNAVIDQMLEEGTAYKCYCSKERLEALREEQMAKGEKPRYDGRCRHSHEHHADDEPCVVRFANPQEGSVVFDDQIRGPIEFSNQELDDLIIRRTDGSPTYNFCVVVDDWDMEITHVIRGEDHINNTPRQINILKALKAPVPVYAHVSMINGDDGKKLSKRHGAVSVMQYRDDGYLPEALLNYLVRLGWSHGDQEIFTREEMIKYFTLNAVSKSASAFNTDKLLWPNHHYINALPPEYVATHLQWHIEQENIDTRNGPQLADLVKLLGERCKTLKEMAQSCRYFYEDFAEFDADAAKKHLRPVARQPLEVVRDKLAAITDWTAENVHHAIQATADELEVGMGKVGMPLRVAVTGAGQSPALDVTVHAIGKTRSIERINKALDFIAERENQQ | < 0.0196
